# Source: the supplement of paper PMC8728848
# Some of the results follow.
# Assays:
# Experiment in all cases: glycan array binding signal (z-score within array); higher = stronger binding
# Conditions in all cases: glycan notation: IUPAC condensed, linker removed
# [1] = biological target: Fuc(a1-2)Gal(b1-4)[Fuc(a1-3)]GlcNAc(b1-2)[Fuc(a1-2)Gal(b1-4)[Fuc(a1-3)]GlcNAc(b1-4)]Man(a1-3)[Fuc(a1-2)Gal(b1-4)[Fuc(a1-3)]GlcNAc(b1-2)Man(a1-6)]Man(b1-4)GlcNAc(b1-4)GlcNAc
# Summary of the method: (§1)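 Negative Z-scores can be read as non-binding. The Z-score is calculated within each array and then averaged across arrays of one protein sequence at different concentrations or buffers and across linkers. Arrays, 3228 in all, were curated from the Consortium for Functional Glycomics database and kept only where the protein sequence was available.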
# [2] = biological target: Fuc(a1-2)Gal(b1-4)[Fuc(a1-3)]GlcNAc(b1-3)Gal(b1-4)[Fuc(a1-3)]GlcNAc
# Summary of the method: as §1
# [3] = biological target: Fuc(a1-2)Gal(b1-4)[Fuc(a1-3)]GlcNAc(b1-3)Gal(b1-4)[Fuc(a1-3)]GlcNAc(b1-3)Gal(b1-4)[Fuc(a1-3)]GlcNAc
# Summary of the method: as §1
# [4] = biological target: Fuc(a1-2)Gal(b1-4)[Fuc(a1-3)]GlcNAc(b1-3)GalNAc
# Summary of the method: as §1
# [5] = biological target: Fuc(a1-2)Gal(b1-4)[Fuc(a1-3)]GlcNAc(b1-3)[Neu5Ac(a2-6)Gal(b1-4)GlcNAc(b1-6)]Gal(b1-4)Glc
# Summary of the method: as §1
# [6] = biological target: Fuc(a1-2)Gal3S(b1-4)GlcNAc
# Summary of the method: as §1
# [7] = biological target: Fuc(a1-2)Gal6S(b1-3)GlcNAc
# Summary of the method: as §1
# [8] = biological target: Fuc(a1-2)Gal6S(b1-3)GlcNAc6S
# Summary of the method: as §1
# Fuc(a1-2)Gal6S(b1-4)Glc = biological target: Fuc(a1-2)Gal6S(b1-4)Glc
# Summary of the method: as §1
# [9] = biological target: Fuc(a1-2)Gal6S(b1-4)Glc6S
# Summary of the method: as §1
# [10] = biological target: Fuc(a1-2)Gal6S(b1-4)GlcNAc
# Summary of the method: as §1
# Fuc(a1-2)GlcNAc = biological target: Fuc(a1-2)GlcNAc
# Summary of the method: as §1
# Fuc(a1-2)[Gal(a1-3)]Gal = biological target: Fuc(a1-2)[Gal(a1-3)]Gal
# Summary of the method: as §1
# [11] = biological target: Fuc(a1-2)[Gal(a1-3)]Gal(b1-3)GalNAc
# Summary of the method: as §1
# [12] = biological target: Fuc(a1-2)[Gal(a1-3)]Gal(b1-3)GalNAc(b1-3)Gal(a1-4)Gal(b1-4)Glc
# Summary of the method: as §1
# [13] = biological target: Fuc(a1-2)[Gal(a1-3)]Gal(b1-3)GlcNAc
# Summary of the method: as §1
# [14] = biological target: Fuc(a1-2)[Gal(a1-3)]Gal(b1-3)GlcNAc(b1-2)Man(a1-3)[Fuc(a1-2)[Gal(a1-3)]Gal(b1-3)GlcNAc(b1-2)Man(a1-6)]Man(b1-4)GlcNAc(b1-4)GlcNAc
# Summary of the method: as §1
# [15] = biological target: Fuc(a1-2)[Gal(a1-3)]Gal(b1-3)GlcNAc(b1-2)Man(a1-3)[Fuc(a1-2)[Gal(a1-3)]Gal(b1-3)GlcNAc(b1-2)Man(a1-6)]Man(b1-4)GlcNAc(b1-4)[Fuc(a1-6)]GlcNAc
# Summary of the method: as §1
# [16] = biological target: Fuc(a1-2)[Gal(a1-3)]Gal(b1-3)GlcNAc(b1-3)GalNAc
# Summary of the method: as §1
# [17] = biological target: Fuc(a1-2)[Gal(a1-3)]Gal(b1-3)GlcNAc(b1-6)GalNAc
# Summary of the method: as §1
# [18] = biological target: Fuc(a1-2)[Gal(a1-3)]Gal(b1-4)Glc
# Summary of the method: as §1
# [19] = biological target: Fuc(a1-2)[Gal(a1-3)]Gal(b1-4)GlcNAc
# Summary of the method: as §1
# [20] = biological target: Fuc(a1-2)[Gal(a1-3)]Gal(b1-4)GlcNAc(b1-2)Man
# Summary of the method: as §1
# [21] = biological target: Fuc(a1-2)[Gal(a1-3)]Gal(b1-4)GlcNAc(b1-2)Man(a1-3)[Fuc(a1-2)[Gal(a1-3)]Gal(b1-4)GlcNAc(b1-2)Man(a1-6)]Man(b1-4)GlcNAc(b1-4)GlcNAc
# Summary of the method: as §1
# [22] = biological target: Fuc(a1-2)[Gal(a1-3)]Gal(b1-4)GlcNAc(b1-2)Man(a1-3)[Fuc(a1-2)[Gal(a1-3)]Gal(b1-4)GlcNAc(b1-2)Man(a1-6)]Man(b1-4)GlcNAc(b1-4)[Fuc(a1-6)]GlcNAc
# Summary of the method: as §1
# [23] = biological target: Fuc(a1-2)[Gal(a1-3)]Gal(b1-4)GlcNAc(b1-3)GalNAc
# Summary of the method: as §1
# [24] = biological target: Fuc(a1-2)[Gal(a1-3)]Gal(b1-4)GlcNAc(b1-3)[Fuc(a1-2)[Gal(a1-3)]Gal(b1-4)GlcNAc(b1-6)]GalNAc
# Summary of the method: as §1
# [25] = biological target: Fuc(a1-2)[Gal(a1-3)]Gal(b1-4)GlcNAc(b1-6)GalNAc
# Summary of the method: as §1
# [26] = biological target: Fuc(a1-2)[Gal(a1-3)]Gal(b1-4)[Fuc(a1-3)]Glc
# Summary of the method: as §1
# [27] = biological target: Fuc(a1-2)[Gal(a1-3)]Gal(b1-4)[Fuc(a1-3)]GlcNAc
# Summary of the method: as §1
# [28] = biological target: Fuc(a1-2)[Gal(a1-3)]Gal(b1-4)[Fuc(a1-3)]GlcNAc(b1-3)GalNAc
# Summary of the method: as §1
# [29] = biological target: Fuc(a1-2)[Gal(a1-4)]Gal(b1-4)GalNAc
# Summary of the method: as §1
# [30] = biological target: Fuc(a1-2)[Gal(a1-4)]Gal(b1-4)GlcNAc
# Summary of the method: as §1
# [31] = biological target: Fuc(a1-2)[GalNAc(a1-3)]Gal
# Summary of the method: as §1
# [32] = biological target: Fuc(a1-2)[GalNAc(a1-3)]Gal(b1-3)GalNAc(a1-3)[Fuc(a1-2)]Gal(b1-4)GlcNAc
# Summary of the method: as §1
# [33] = biological target: Fuc(a1-2)[GalNAc(a1-3)]Gal(b1-3)GalNAc(b1-3)Gal(a1-4)Gal(b1-4)Glc
# Summary of the method: as §1
# [34] = biological target: Fuc(a1-2)[GalNAc(a1-3)]Gal(b1-3)GlcNAc
# Summary of the method: as §1
# [35] = biological target: Fuc(a1-2)[GalNAc(a1-3)]Gal(b1-3)GlcNAc(b1-2)Man(a1-3)[Fuc(a1-2)[GalNAc(a1-3)]Gal(b1-3)GlcNAc(b1-2)Man(a1-6)]Man(b1-4)GlcNAc(b1-4)GlcNAc
# Summary of the method: as §1
# [36] = biological target: Fuc(a1-2)[GalNAc(a1-3)]Gal(b1-3)GlcNAc(b1-2)Man(a1-3)[Fuc(a1-2)[GalNAc(a1-3)]Gal(b1-3)GlcNAc(b1-2)Man(a1-6)]Man(b1-4)GlcNAc(b1-4)[Fuc(a1-6)]GlcNAc
# Summary of the method: as §1
# [37] = biological target: Fuc(a1-2)[GalNAc(a1-3)]Gal(b1-3)GlcNAc(b1-3)GalNAc
# Summary of the method: as §1
# [38] = biological target: Fuc(a1-2)[GalNAc(a1-3)]Gal(b1-3)GlcNAc(b1-6)GalNAc
# Summary of the method: as §1
# [39] = biological target: Fuc(a1-2)[GalNAc(a1-3)]Gal(b1-4)Glc
# Summary of the method: as §1
# [40] = biological target: Fuc(a1-2)[GalNAc(a1-3)]Gal(b1-4)GlcNAc
# Summary of the method: as §1
# [41] = biological target: Fuc(a1-2)[GalNAc(a1-3)]Gal(b1-4)GlcNAc(b1-2)Man
# Summary of the method: as §1
# [42] = biological target: Fuc(a1-2)[GalNAc(a1-3)]Gal(b1-4)GlcNAc(b1-2)Man(a1-3)[Fuc(a1-2)[GalNAc(a1-3)]Gal(b1-4)GlcNAc(b1-2)Man(a1-6)]Man(b1-4)GlcNAc(b1-4)GlcNAc
# Summary of the method: as §1
binder,measurement,setting,value
"Nictaba (Nicotiana tabacum), Q94EW1 (protein) MQGQWIAARDLSITWVDNPQYWTWKTVDPNIEVAELRRVAWLDIYGKIETKNLIRKTSYAVYLVFKLTDNPRELERATASLRFVNEVAEGAGIEGTTVFISKKKKLPGELGRFPHLRSDGWLEIKLGEFFNNLGEDGEVEMRLMEINDKTWKSGIIVKGFDIRPN",glycan array binding signal (z-score),[1],1.78
same,glycan array binding signal (z-score),[2],-0.299
same,glycan array binding signal (z-score),[3],-0.29
same,glycan array binding signal (z-score),[4],-0.21
same,glycan array binding signal (z-score),[5],-0.388
same,glycan array binding signal (z-score),[6],-0.39
same,glycan array binding signal (z-score),[7],-0.386
same,glycan array binding signal (z-score),[8],-0.381
same,glycan array binding signal (z-score),Fuc(a1-2)Gal6S(b1-4)Glc,-0.247
same,glycan array binding signal (z-score),[9],-0.234
same,glycan array binding signal (z-score),[10],-0.246
same,glycan array binding signal (z-score),Fuc(a1-2)GlcNAc,-0.188
same,glycan array binding signal (z-score),Fuc(a1-2)[Gal(a1-3)]Gal,-0.335
same,glycan array binding signal (z-score),[11],-0.328
same,glycan array binding signal (z-score),[12],-0.384
same,glycan array binding signal (z-score),[13],-0.312
same,glycan array binding signal (z-score),[14],0.304
same,glycan array binding signal (z-score),[15],-0.187
same,glycan array binding signal (z-score),[16],-0.247
same,glycan array binding signal (z-score),[17],-0.387
same,glycan array binding signal (z-score),[18],-0.293
same,glycan array binding signal (z-score),[19],-0.27
same,glycan array binding signal (z-score),[20],-0.388
same,glycan array binding signal (z-score),[21],2.23
same,glycan array binding signal (z-score),[22],0.417
same,glycan array binding signal (z-score),[23],-0.273
same,glycan array binding signal (z-score),[24],-0.385
same,glycan array binding signal (z-score),[25],-0.389
same,glycan array binding signal (z-score),[26],-0.288
same,glycan array binding signal (z-score),[27],-0.316
same,glycan array binding signal (z-score),[28],-0.275
same,glycan array binding signal (z-score),[29],-0.381
same,glycan array binding signal (z-score),[30],-0.271
same,glycan array binding signal (z-score),[31],-0.289
same,glycan array binding signal (z-score),[32],-0.297
same,glycan array binding signal (z-score),[33],-0.38
same,glycan array binding signal (z-score),[34],-0.331
same,glycan array binding signal (z-score),[35],-0.066
same,glycan array binding signal (z-score),[36],-0.158
same,glycan array binding signal (z-score),[37],-0.211
same,glycan array binding signal (z-score),[38],-0.388
same,glycan array binding signal (z-score),[39],-0.266
same,glycan array binding signal (z-score),[40],-0.305
same,glycan array binding signal (z-score),[41],-0.39
same,glycan array binding signal (z-score),[42],1.25
